# Measurements: the supplement of paper PMC3334620
# In all, about 33,000 sequences were measured (“E-score (-0.5 to 0.5)”: median about -0.041, highest 2% from about 0.37 on). The list shows a part of the results.
# Biological target: T1, Ecm22 (UniProt Q05958)
# T1 sequence: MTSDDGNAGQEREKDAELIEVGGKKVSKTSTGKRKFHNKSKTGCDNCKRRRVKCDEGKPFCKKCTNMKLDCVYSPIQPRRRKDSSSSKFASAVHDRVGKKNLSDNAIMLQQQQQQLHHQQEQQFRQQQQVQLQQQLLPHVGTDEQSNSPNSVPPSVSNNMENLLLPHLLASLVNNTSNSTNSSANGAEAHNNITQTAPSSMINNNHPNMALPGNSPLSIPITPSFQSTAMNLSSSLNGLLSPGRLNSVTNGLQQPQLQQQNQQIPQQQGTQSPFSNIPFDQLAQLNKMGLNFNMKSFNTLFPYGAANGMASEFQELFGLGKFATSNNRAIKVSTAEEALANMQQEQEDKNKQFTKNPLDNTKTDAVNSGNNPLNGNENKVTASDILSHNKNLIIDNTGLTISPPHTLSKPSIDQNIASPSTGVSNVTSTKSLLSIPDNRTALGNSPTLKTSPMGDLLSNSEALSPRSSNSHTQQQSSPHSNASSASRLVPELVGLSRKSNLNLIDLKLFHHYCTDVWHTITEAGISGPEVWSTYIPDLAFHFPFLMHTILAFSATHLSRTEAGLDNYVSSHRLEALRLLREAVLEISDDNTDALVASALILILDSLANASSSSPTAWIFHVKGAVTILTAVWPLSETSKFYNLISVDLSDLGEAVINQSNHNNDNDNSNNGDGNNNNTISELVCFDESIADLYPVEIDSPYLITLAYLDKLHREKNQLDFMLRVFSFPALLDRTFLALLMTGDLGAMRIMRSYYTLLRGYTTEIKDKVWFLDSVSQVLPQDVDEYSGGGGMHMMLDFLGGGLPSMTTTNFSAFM
# Test: PBM E-score (8-mer binding enrichment) (E-score (-0.5 to 0.5)); higher = stronger / more preferred TF binding; most listed sequences are background and not binding sites
# Conditions: protein concentration: 200 nM; construct: GST-full length
# In short: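 Full-length yeast transcription factors or their DNA-binding domains, GST-tagged and expressed with PURExpress, were applied at about 100-200 nM to universal all-10-mer Agilent arrays. These arrays had been made double-stranded by primer extension on fresh or once-stripped slides. Detection used fluorescent anti-GST, normalisation used masliner, and E-scores for ungapped eight-base words pooled with reverse complements came from the Universal PBM Analysis Suite.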
row,Sequence,PBM E-score
1,AAGCTATC,0.0431
2,AAAAGCGT,-0.0336
3,CAGGAACG,0.463
4,ATGTACGA,0.477
5,GTAATTCA,0.00085
6,GCCATGAC,-0.05
7,CTAGTGTC,-0.0311
8,GTTCTCGA,0.207
9,AGGACGTG,-0.194
10,AATTAATT,-0.163
11,AATCCCCG,-0.0566
12,ATCCGGGC,0.0039
13,TAAGTCGA,0.0399
14,GTTCGATA,0.081
15,AGGCCCCC,-0.287
16,ACGTGAGA,-0.0411
17,GCTTTTTA,0.0693
18,ACTTATGA,-0.0382
19,CTGGATAA,-0.118
20,AGAGAGTG,-0.122
21,ACCTTGGA,-0.348
22,AAAGGTCC,-0.182
23,GAGTTGGC,0.00765
24,AGTAAGGC,-0.0596
25,CCGGAAGA,-0.0579

row,Sequence,PBM E-score
1,AACCGACG,0.352
2,AAACCATC,0.00312
3,CCCCAATA,-0.286
4,AGTTCTAA,-0.0483
5,ACCACGCA,-0.16
6,CATACGCC,0.182
7,AGTGACTC,-0.146
8,GCAGCAGC,-0.0529
9,ACGACGCG,0.407
10,ACGTACAG,0.186
11,CACTGTGG,-0.25
12,AGGAGATG,-0.131
13,TAGACTAA,-0.258
14,GCACATCA,-0.0965
15,CGTTGATA,0.0252
16,GGGCCAAA,0.00115
17,ATTCAATC,-0.0165
18,GTTCCAGA,0.143
19,CGATGGGA,0.0516
20,ACGTTACC,0.0268
21,TGGGTTAA,-0.142
22,CCAGGGAA,-0.146
23,GTGTCACA,-0.0999
24,ACACCTGG,-0.214
25,GAAGGTCC,0.0597

row,Sequence,PBM E-score
1,GGTCAATA,0.0278
2,ATGGTTCG,0.132
3,AGGTTAGG,-0.18
4,AACAAAAA,0.136
5,ACCCAGGT,-0.241
6,TAGCACCA,-0.229
7,CGCAACTC,-0.016
8,GCGAGTCA,0.134
9,CTTGCGAA,0.214
10,ACTGCGTC,-0.128
11,ACTCGTTC,0.466
12,ATCGTCGG,0.175
13,GAACGCAA,0.0693
14,ACGGAAAT,0.25
15,CTAATAAC,0.183
16,AGTATAGG,-0.213
17,CATGCAAC,0.0872
18,AAAAGACC,-0.19
19,CCAGCGAC,-0.231
20,CTTGCATC,-0.0202
21,ATGCCGCC,-0.0499
22,AGCGACTA,0.161
23,CTCGCGCC,0.0485
24,CAAGGCTA,-0.0293
25,ACATCCTA,-0.147

row,Sequence,PBM E-score
1,ACTCTTTA,-0.165
2,AATGCGTA,0.118
3,GTGCGTGA,0.0975
4,AGTGACGA,0.0498
5,AGAGACAT,-0.195
6,CACGTCCG,-0.21
7,AGAGTTTA,0.0891
8,GGGGTTAA,-0.266
9,CGGACGGA,-0.0276
10,AACCGGAT,-0.0117
11,ATGTTCCG,-0.016
12,GATCATCC,0.134
13,CCCGCACC,0.0314
14,ACAATTAG,-0.0347
15,CTCAAATA,-0.0528
16,GGTAAGAC,0.0434
17,CTGATTTA,-0.036
18,AGCTGGAT,0.088
19,CTTATACA,-0.123
20,ACAAGGCC,-0.181
21,ACCAATCC,-0.249
22,GACACTGA,-0.0448
23,CCTTGAAC,0.0353
24,AAACTGGT,0.0364
25,GTAGCACA,-0.0815

row,Sequence,PBM E-score
1,GAGTGTAC,0.2
2,CACAAGCA,-0.151
3,GGGCAACA,-0.0629
4,ATTCAAGG,-0.157
5,AACTGAGA,-0.14
6,GATGATAA,0.023
7,CCCAATCG,-0.18
8,ACCAGCGT,-0.0626
9,ATCATGGG,-0.233
10,AGCGTACA,0.179
11,CCCCCGAG,-0.231
12,AGGCCCGG,-0.219
13,AGAAGTTA,-0.125
14,AAGGGCCC,-0.0372
15,ATCACGCG,0.248
16,ATACTAGG,-0.162
17,AAAAGGTG,-0.0672
18,ACAGAGTA,0.0174
19,GGGTACCA,-0.317
20,ATCGCCTA,-0.0443
21,ATCCAGAA,0.0321
22,GAGAAATA,0.0583
23,AATAAGGC,-0.225
24,ATTAAGAA,0.118
25,CGGTCGAA,0.109

row,Sequence,PBM E-score
1,GCATTAGC,-0.103
2,GGACCTCC,-0.152
3,ATTCTCCC,-0.287
4,CAGTCTGA,-0.00525
5,CCATTCCG,-0.135
6,ATGTTCTG,0.0525
7,TCAAACAA,-0.155
8,CTTTGAAC,0.0201
9,AAGTCAAG,-0.253
10,CGGATTGC,-0.0216
11,CACTTCAC,-0.307
12,AGCGCAAC,0.145
13,GTGTAAAA,-0.0587
14,ATTTTAAA,-0.0344
15,ATGCGGGA,0.0379
16,CTCCTATC,0.0551
17,AAGTAGGT,-0.0722
18,GGTATTGA,-0.0499
19,GCCTTTAC,0.0442
20,AATACACT,-0.0507
21,GGTCTATA,0.0785
22,AGTGGGCC,-0.116
23,GTTGGGCA,0.0114
24,CTTGCCAC,-0.175
25,AGTGCTTA,-0.0659

row,Sequence,PBM E-score
1,ACAAATAG,0.0509
2,CACCCCAA,0.0261
3,CCCGTTTA,0.433
4,CCAGGCAG,-0.159
5,CCCTGCCA,-0.124
6,AAATCGTT,0.319
7,CAGTCAGA,-0.25
8,ACAGAGCT,-0.297
9,CCGGGGGC,-0.189
10,CCGTATAA,0.473
11,ACGTTTTA,0.166
12,GACTATAC,0.283
13,TACCTTAA,0.247
14,GCCTCGCA,0.205
15,AATCCACT,-0.119
16,CTAAGGCC,-0.346
17,CATGTAAG,-0.058
18,CCGAGGAA,0.0818
19,ACGTGTCT,0.00104
20,AGGATTGG,-0.26
21,CCCAACCG,0.0194
22,CACAAGTA,-0.0291
